# Measurements from publication PMC4336329 (PLoS ONE, 2015).
# Hit rate of the full screen: of about 310,000 compounds, about 14,000 (4.5%) showed an effect of 50% or more. Effects have a minus sign here. This is one part of the list.
# Molecular target: human ether-à-go-go-related gene (hERG) potassium channel (human, UniProt Q12809)
# Assay: primary screen, population patch clamp on CHO cells stably expressing hERG
# 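Note: peak tail current of the secondary pulse compared with the same well before compound.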
# Sequence of human ether-à-go-go-related gene (hERG) potassium channel (Q12809 whole entry, looked up): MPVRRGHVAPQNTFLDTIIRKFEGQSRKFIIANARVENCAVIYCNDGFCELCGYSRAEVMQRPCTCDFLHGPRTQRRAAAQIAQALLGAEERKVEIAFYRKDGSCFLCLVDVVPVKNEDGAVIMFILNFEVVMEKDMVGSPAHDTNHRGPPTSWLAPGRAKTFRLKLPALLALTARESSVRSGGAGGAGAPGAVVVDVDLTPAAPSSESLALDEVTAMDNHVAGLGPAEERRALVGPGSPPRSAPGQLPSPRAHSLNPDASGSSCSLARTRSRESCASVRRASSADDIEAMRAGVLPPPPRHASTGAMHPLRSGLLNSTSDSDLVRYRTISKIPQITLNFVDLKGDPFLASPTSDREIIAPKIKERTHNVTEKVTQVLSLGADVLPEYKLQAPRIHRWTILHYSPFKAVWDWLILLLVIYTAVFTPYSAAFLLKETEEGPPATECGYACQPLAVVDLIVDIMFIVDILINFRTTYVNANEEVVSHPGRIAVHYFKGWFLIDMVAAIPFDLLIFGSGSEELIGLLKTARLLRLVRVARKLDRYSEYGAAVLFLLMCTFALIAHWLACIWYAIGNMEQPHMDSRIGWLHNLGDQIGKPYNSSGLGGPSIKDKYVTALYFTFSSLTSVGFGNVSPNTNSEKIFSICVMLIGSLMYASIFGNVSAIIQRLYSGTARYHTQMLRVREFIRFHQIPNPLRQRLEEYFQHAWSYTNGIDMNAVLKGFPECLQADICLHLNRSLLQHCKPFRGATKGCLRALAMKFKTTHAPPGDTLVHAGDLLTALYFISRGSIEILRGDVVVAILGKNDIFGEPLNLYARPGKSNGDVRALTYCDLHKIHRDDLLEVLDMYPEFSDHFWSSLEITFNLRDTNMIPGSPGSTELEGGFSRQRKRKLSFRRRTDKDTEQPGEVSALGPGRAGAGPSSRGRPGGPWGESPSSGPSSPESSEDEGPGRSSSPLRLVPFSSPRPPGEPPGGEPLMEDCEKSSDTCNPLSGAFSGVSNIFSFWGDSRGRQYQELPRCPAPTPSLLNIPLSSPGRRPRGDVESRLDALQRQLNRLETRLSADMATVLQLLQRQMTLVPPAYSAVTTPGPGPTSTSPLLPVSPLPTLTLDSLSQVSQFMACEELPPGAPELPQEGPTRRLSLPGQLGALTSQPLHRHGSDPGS
row,Structure (SMILES),"hERG current change (%, negative = inhibition) at 10uM"
1,CCOc1ccc(NC(=O)C/C(N)=N/O)cc1,11.8%
2,Cc1ccc(NC(=O)CSc2nc(O)cc(=O)n2C)cc1,3.86%
3,CC1C(c2ccccc2)=[N+]([O-])C2(CCCC2)N1O (centres unmarked),0.2%
4,CC(C)c1ccc(NC(=O)Cn2c(=O)oc3cccnc32)cc1,-5.25%
5,CC(/C=N/n1c(-c2ccc(Cl)cc2)n[nH]c1=S)=C\c1ccco1,6.27%
6,O=C(NCc1ccncc1)c1ccc(NS(=O)(=O)c2cccc([N+](=O)[O-])c2)cc1,19.2%
7,c1ccc(-c2n[nH]c(-c3ccccn3)n2)nc1,19.6%
8,C=CCN1C(=O)c2ccccc2NC1c1ccc(Br)s1 (centres unmarked),-5.19%
9,Cc1cc(NC(=O)CSc2nccn2-c2cccc(Cl)c2)no1,-4.27%
10,N#Cc1nc(COc2ccccc2F)oc1NCc1ccc(F)cc1,7.13%
11,c1ccc(-c2csc(Nc3cccnc3)n2)nc1,-1.27%
12,CC(C)CC(=O)NC(=S)Nc1ccc(F)cc1F,9.46%
13,COc1ccc(-c2noc(C3CCCN(C(=O)c4ccc(F)cc4)C3)n2)cc1 (centres unmarked),-35.3%
14,FC(F)(F)c1cccc(NC2=NCCCS2)c1,11.6%
15,O=C(NCCC(=O)N1CCc2ccccc21)c1ccccc1Cl,3.84%
16,COc1cc(/C=C2/C(=O)NN(c3ccc(C)c(Cl)c3)C2=O)cc([N+](=O)[O-])c1O,17.5%
17,C/C(=N\N1CCN(c2ccc(Cl)cc2)CC1)c1cccs1,-3.52%
18,O=C(O)c1ccc2c(=O)n(Cc3ccccc3)c(SCc3ccc([N+](=O)[O-])cc3)nc2c1,-29.5%
19,O=C(Nc1ccc2[nH]c(=O)[nH]c2c1)C(F)(F)F,14.9%
20,CC(=O)c1ccc(Nc2nc3ccc(C)cc3n3cnnc23)cc1,14.2%
21,CCN(CC)S(=O)(=O)c1cccc(-c2nnc(SCC(=O)NCCC3=CCCCC3)n2N)c1,-32.6%
22,N#Cc1ccc(COC(=O)C2CCC(=O)N2)cc1 (centres unmarked),9.97%

row,Structure (SMILES),"hERG current change (%, negative = inhibition) at 10uM"
1,COCCN(CCOC)C(=O)c1ccc(SCc2ccc(C)cc2)c([N+](=O)[O-])c1,-43.8%
2,CC1C(=O)Nc2ccccc2N1C(=O)c1ccc(O)cc1 (centres unmarked),5.81%
3,C=CCNC(=O)CN(Cc1ccccc1)S(=O)(=O)c1ccccc1,-4.02%
4,CCN(CC)c1ccc(/C=N/NC(=O)c2cccc(S(=O)(=O)Nc3ccccc3OC)c2)cc1,2.69%
5,CCOC(=O)C1CCCN(C(=O)c2cc3cc(F)ccc3[nH]2)C1 (centres unmarked),-7.96%
6,O=C(O)c1ccc2c(c1)N(Cc1ccc(F)cc1)C(=O)c1ccccc1S2,-1.07%
7,CCNS(=O)(=O)c1ccc2nc(NC(=O)/C=C/c3cc(OC)c(OC)c(OC)c3)sc2c1,-4.17%
8,Clc1ccc(NCc2nncn2-c2ccccc2)cc1,-7.52%
9,Cc1ccc(-c2nc3ccc(C(=O)O)cc3nc2-c2ccc(C)cc2)cc1,4.24%
10,Cc1ccc(-n2c(-c3ccccc3)c[nH]c2=S)cc1,-1.47%
11,CC(=O)C1C(=O)CC(C)(O)C(C(C)=O)C1c1ccc(N(C)C)cc1 (centres unmarked),18%
12,COc1ccc(C2CC(c3c(-c4ccccc4)c4cc(Cl)ccc4[nH]c3=O)=NN2S(C)(=O)=O)cc1OC (centres unmarked),9.73%
13,COc1ccc(-c2oc3ncnc(NCCCN(C)C)c3c2-c2ccc(OC)cc2)cc1,-60.2%
14,CC(C)OCCCNc1nc(-c2ccccc2)nc2ccccc12.Cl,-2.52%
15,COc1ccccc1CN1C(=O)[C@@H]2C(CCC(N)=O)NC3(C(=O)Nc4c3ccc(Cl)c4C)[C@@H]2C1=O (some centres unmarked),-5.7%
16,CCCCc1nc2cc(C(=O)NC3CCOC(C)(C)C3)ccc2o1 (centres unmarked),-15.2%
17,CCCN1C=CC(=C/C=C(\C#N)C(=O)OCC)C=C1,-6.49%
18,COc1ccc(-n2ncc3c2CC(C)(C)CC3NC(=O)C2CCN(C(C)=O)CC2)cc1 (centres unmarked),-34.5%
19,CC1(C)CC(CC(=O)O)(c2ccc(F)cc2)CCO1 (centres unmarked),3.33%
20,NC(=O)c1cccnc1Oc1ccc(Cl)cc1,-1.03%
21,COc1cc(/C=N/NC(=O)CCc2n[nH]c(=O)[nH]c2=O)ccc1O,-0.627%
22,CSc1nccc(Oc2ccccc2Cl)n1,12.1%
